Results published in the supplement of paper PMC11417369.
The other results are listed elsewhere or left out.

tested on: PF3D7_0420300 AP2 domain 1 (GST-tagged); assay: gcPBM binding intensity (ln(normalized median fluorescence intensity)); higher = stronger DNA binding
Method in brief: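 Binding intensity is the highest Masliner-normalised natural-log median intensity over replicate spots in either probe orientation. To obtain it, GST-tagged P. falciparum DNA-binding domains made in E. coli were incubated for 1 h on an Agilent 4 × 180k array of primer-extended double-stranded 36-bp intergenic genomic probes plus negative controls. Detection used Alexa488 anti-GST antibody with scanning at 488 nm.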

Sequence	gcPBM binding intensity (ln)
TCCTTTTCATCTTGTAGTACGGAAATGTAGCTCCAA [XGTACX_site8563]	9.09
TGTGTAAATATGTATACACACATATCTGATCAATAT [CACACA_site7507]	9.45
TATATCTACTTAAAAAGTACGTAAATTATAAGCTAT [XGTACX_site6420]	8.97
TATAAATATAGACACACACACACACCGAAGCGTAGC [CACACA_site6180]	10.1
TCGTCACTTTAATATTGTACATATATATATATATAT [XGTACX_site8046]	9.41
AAAATTAATAAATAAACACACATATTTATATTTATA [CACACA_site7266]	9.35
ATATATATATGTGCCAGTACACATGTATACATTATA [XGTACX_site3899]	9.29
GATATATATATTCACACACACATGGAAATATATATA [CACACA_site382]	9.79
AACTTTTTACAAACAGGTACGCATATATATATATAT [XGTACX_site5081]	9.33
AAAATTTAAAAATGGACACACACAAAAAATAATACT [CACACA_site7972]	10.1
AATAATTATTTGTATAGTACAATATACAAAAGATGA [XGTACX_site4312]	9.31
CACATACACATACAAACACACATTATATATATATAT [CACACA_site8460]	9.62
CATCCATTATTAATATGTACATATGTATATATATTA [XGTACX_site1318]	9.25
GAAAAAAAAAAAAGGGGTACATTTATTTTATCAATA [XGTACX_site8331]	8.99
TTTTTTTTTTTTTTTTTTTTTTTCTTTATTTTTTTT [CACACA_negctrl_site703]	8.32
TAAACACCCATATAAACACACATATAAACACCCATA [CACACA_site5382]	9.84
TTTATTTATTTTTAACGTACGCACACATATAAATAT [XGTACX_site4042]	9.38
TATTTTTAATAAAAACGTACGGAATACAAAAAAAAT [XGTACX_site3477]	9.4
TATTATAAAATATACACATGCAAAAACAAAATTTAC [TGCATGCA_site1051]	9.55
TATATACATTGGTATACATGCATTCTCTTTCATACA [TGCATGCA_site734]	9.31
TAAAATTTATAAACTACACACATATAAATAGTAATA [CACACA_site7708]	9.67
ACAGAAAAAAGACACACACACATAATATACATACAT [CACACA_site6991]	10.2
ATTTTTTAAATGAGGCGTACACAAAAATATAATTAC [XGTACX_site7087]	9.46
TATATATATATATATACACACACACTAATAAAAAAA [CACACA_site8426]	10
CTTAGATATAAAAATTGTACATACATATTTTTGACA [XGTACX_site2107]	9.05
